The supplement of paper PMC4967469

Compound: COc1ccc(C2=N[C@@H](c3ccc(Cl)cc3)[C@@H](c3ccc(Cl)cc3)N2C(=O)N2CCNC(=O)C2)c(OC(C)C)c1 [Nutlin-3a]
Test: Viability of human cancer cell lines after 72 h of drug (GDSC screen)
Description: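 Human cancer cell lines in 384-well plates, medium with 10% serum, drug for 72 h over a 256-fold dose range (nine 2-fold or five 4-fold steps up to the top dose). Adherent lines were fixed and stained with the nucleic acid dye Syto60, suspension lines read with resazurin; signal relative to control wells, capped at 0 and 100%. One two-parameter sigmoid per drug and line, fitted in a mixed model over all curves with the slope shared within a line.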

Q: For “KU812 (chronic myeloid leukaemia, suspension, top dose 8 µM)”, which AUC is on record?
A: 0.952

Q: And the IC50?
A: > 8 µM

Q: With “KU-19-19 (bladder, adherent, top dose 8 µM)” as the cell line, how does the AUC read?
A: 0.985

Q: And the IC50?
A: > 8 µM

Q: How did the AUC turn out when “KURAMOCHI (ovary, adherent, top dose 8 µM)” was run?
A: 0.984

Q: What about the IC50 of the same cell line?
A: > 8 µM

Q: For “KY821 (leukaemia, suspension, top dose 8 µM)”, which AUC is on record?
A: 0.987

Q: And the IC50?
A: > 8 µM

Q: What does the source list for “KYAE-1 (oesophagus, suspension, top dose 8 µM)”?
A: AUC: 0.971; IC50: > 8 µM

Q: What does the source list for “KYM-1 (rhabdomyosarcoma, adherent, top dose 4 µM)”?
A: AUC: 0.915; IC50: > 4 µM

Q: Which results are given for “KYSE-50 (oesophagus, adherent, top dose 8 µM)”?
A: AUC: 0.99; IC50: > 8 µM

Q: Which AUC does the source give for “KYSE-140 (oesophagus, adherent, top dose 8 µM)” here?
A: 0.984

Q: What about the IC50 of the same cell line?
A: > 8 µM

Q: Which results are given for “KYSE-150 (oesophagus, adherent, top dose 8 µM)”?
A: AUC: 0.966; IC50: > 8 µM

Q: How did the AUC turn out when “KYSE-220 (oesophagus, adherent, top dose 8 µM)” was run?
A: 0.978

Q: What about the IC50 of the same cell line?
A: > 8 µM

Q: Which AUC does the source give for “KYSE-410 (oesophagus, adherent, top dose 8 µM)” here?
A: 0.96

Q: What about the IC50 of the same cell line?
A: > 8 µM

Q: How did the AUC turn out when “KYSE-450 (oesophagus, adherent, top dose 8 µM)” was run?
A: 0.988

Q: And the IC50?
A: > 8 µM

Q: Which AUC does the source give for “KYSE-510 (oesophagus, adherent, top dose 8 µM)” here?
A: 0.992

Q: What about the IC50 of the same cell line?
A: > 8 µM

Q: Which AUC does the source give for “KYSE-520 (oesophagus, adherent, top dose 8 µM)” here?
A: 0.973

Q: And the IC50?
A: > 8 µM

Q: “L-363 (myeloma, suspension, top dose 8 µM)” was tested. Which AUC did it give?
A: 0.965

Q: And the IC50?
A: > 8 µM

Q: Which results are given for “L-428 (Hodgkin lymphoma, suspension, top dose 8 µM)”?
A: AUC: 0.99; IC50: > 8 µM

Q: How did the AUC turn out when “L-540 (Hodgkin lymphoma, suspension, top dose 8 µM)” was run?
A: 0.797

Q: And the IC50?
A: 3.31 µM

Q: How did the AUC turn out when “L-1236 (Hodgkin lymphoma, suspension, top dose 8 µM)” was run?
A: 0.992

Q: What about the IC50 of the same cell line?
A: > 8 µM

Q: What does the source list for “LAMA-84 (chronic myeloid leukaemia, suspension, top dose 8 µM)”?
A: AUC: 0.919; IC50: > 8 µM

Q: For “LAN-6 (neuroblastoma, adherent, top dose 8 µM)”, which AUC is on record?
A: 0.872

Q: What about the IC50 of the same cell line?
A: > 8 µM

Q: For “LB373-MEL-D (melanoma, adherent, top dose 8 µM)”, which AUC is on record?
A: 0.923

Q: And the IC50?
A: > 8 µM

Q: Which AUC does the source give for “LB647-SCLC (small cell lung carcinoma, semi-adherent, top dose 8 µM)” here?
A: 0.985

Q: And the IC50?
A: > 8 µM

Q: How did the AUC turn out when “LB771-HNC (head and neck, adherent, top dose 8 µM)” was run?
A: 0.978

Q: And the IC50?
A: > 8 µM

Q: What does the source list for “LB831-BLC (bladder, adherent, top dose 8 µM)”?
A: AUC: 0.987; IC50: > 8 µM

Q: Which AUC does the source give for “LB996-RCC (kidney, adherent, top dose 4 µM)” here?
A: 0.87

Q: And the IC50?
A: > 4 µM

Q: Which results are given for “LB1047-RCC (kidney, adherent, top dose 8 µM)”?
A: AUC: 0.983; IC50: > 8 µM

Q: What does the source list for “LB2518-MEL (melanoma, adherent, top dose 8 µM)”?
A: AUC: 0.896; IC50: > 8 µM

Q: Which AUC does the source give for “LC4-1 (lymphoblastic leukaemia, suspension, top dose 8 µM)” here?
A: 0.893

Q: What about the IC50 of the same cell line?
A: > 8 µM

Q: How did the AUC turn out when “LC-1-sq (lung squamous cell carcinoma, adherent, top dose 8 µM)” was run?
A: 0.932

Q: And the IC50?
A: > 8 µM

Q: For “LC-2-ad (lung adenocarcinoma, adherent, top dose 4 µM)”, which AUC is on record?
A: 0.984

Q: And the IC50?
A: > 4 µM

Q: Which AUC does the source give for “LCLC-97TM1 (large cell lung carcinoma, adherent, top dose 8 µM)” here?
A: 0.979

Q: What about the IC50 of the same cell line?
A: > 8 µM

Q: Which results are given for “LCLC-103H (large cell lung carcinoma, adherent, top dose 4 µM)”?
A: AUC: 0.943; IC50: > 4 µM

Q: For “LK-2 (lung squamous cell carcinoma, adherent, top dose 8 µM)”, which AUC is on record?
A: 0.989

Q: And the IC50?
A: > 8 µM

Lines with a small IC50 respond at low doses; a fit beyond the top or the lowest dose is shown as a bound at that dose. AUC, from the same fit, is the share of area under the viability curve across the 256-fold dose range; values near 1 show little effect.
